Hit rate of the full screen: of about 52,000 compounds, about 4,300 (8.3%) were called active. Rule as the data show it: active = survival mostly below about 52% (no sharp cut-off); inactive = mostly above about 56%. The list shows a part of the results.

In this experiment the test system is DeltatarO mutant. Kind of experiment: S. aureus survival, RN4220 and DeltatarO strains – OD600, teichoic acid synthesis inhibitors, primary screen (AID 463173). The following applies: S. aureus RN4220 wild type/DeltatarO growth, OD600, 18 h, hits give low values, screened at 18.75 µg/mL (by protocol).
With `Cc1ccc2sc(-c3ccc(N)cc3)nc2c1`, the survival was active: 12%.

Take `CCc1ccc(-n2c(=O)c3sc4ccccc4c3n(CC(=O)N(CC)Cc3ccccc3)c2=O)cc1`: the survival was inactive: 78%.

Turning to `CCCCNC(=O)CSc1nc2nc(C)c(Cc3c(F)cccc3Cl)c(C)n2n1`, the survival was active: 31%.

Consider `CCC(=O)N1CCc2cc(CNC(=O)c3ccccc3C)ccc21`, for which the survival was inactive: 91%. In the case of `O=C(NC1CC(=O)N(c2cccc(F)c2)C1)c1ccc2c(c1)OCO2` (stereo unspecified), the survival is inactive: 78%. To `CCc1ccc(N(CC(=O)N2CCCCC2)S(C)(=O)=O)cc1` belongs inactive: 105%. Consider `O=C(C1CCC(Cn2c(=O)c3sccc3n(Cc3ccccc3)c2=O)CC1)N1CCOCC1` (stereo unspecified), for which the survival is inactive: 99%. On to `Cc1ccc(OCC(=O)Nc2ccccc2C(=O)OCc2cc(=O)n3ccsc3n2)cc1`, for which the survival was inactive: 81%. With `CC(=O)c1ccc(NC(=O)COc2ccccc2-c2nc(-c3ccc(C)cc3)no2)cc1`, the survival is inactive: 57%.

As for `Cc1ccc(-c2nnc(Nc3ccccc3O)c3ccccc23)cc1`, the survival is active: 49%. As to `Cc1ccc(Cl)cc1N1CCN(C(=O)c2cnn(C)c2C2CCN(C(=O)OC(C)(C)C)CC2)CC1`, the survival is inactive: 95%. Consider `CCn1cc(/C=C(\NC(=O)c2ccc(C)cc2)C(=O)NCCCn2ccnc2)c2ccccc21`, for which the survival is inactive: 89%.

`CCOC(=O)c1cc2c(=O)n3ccccc3nc2n(CC2CCCO2)c1=NC(=O)c1ccccc1C` (stereo unspecified): the survival was active: 43%. As for `CC(/C=N/NC(=O)c1ccco1)=C\c1ccco1`, the survival is inactive: 93%. As for `COc1ccc(CNC(=O)C2CCCN(S(=O)(=O)c3ccc4c(ccn4C)c3)C2)c(OC)c1` (stereo unspecified), the survival is active: 25%. For `Cc1ccc2c(=O)cc(C(=O)NCc3ccccc3)oc2c1`, the survival is active: 39%. In the case of `CCOc1ccc2nc(N3CCN(C(=O)c4ccco4)CC3)sc2c1` it was inactive: 70%; in that of `COc1ccc(NC(C)=O)cc1NC(=O)C1(c2cccs2)CCOCC1`, inactive: 76%; in that of `COc1ccc(C(=O)NCC(c2ccc3c(c2)OCO3)N2CCN(C)CC2)cc1` (stereo unspecified), active: 47%. `O=S(=O)(c1ccc(F)cc1)N(CC(O)Cn1c2ccccc2c2ccccc21)c1ccccc1` (stereo unspecified): the survival is inactive: 55%. In the case of `CCOc1ccc(CCNC(=O)c2nnc(Cc3ccc(Cl)cc3Cl)o2)cc1OCC`, the survival is inactive: 83%. For the compound `COc1cc(OC)c(N(C)C(=O)c2c(C)oc3ncnc(N4CCCCC4)c23)cc1Cl`, the survival is inactive: 72%. In the case of `O=C(c1ccco1)N1CCCN(C(=O)c2ccco2)CC1`, the survival is inactive: 67%. In the case of `Cc1oc(-c2ccccc2F)nc1CS(=O)CC(=O)NC(C)C` (stereo unspecified) it was inactive: 89%. To `COc1ccc(OC)c(NC(=O)c2cccc3c2C(=O)N(C2CCCCC2)C3)c1` belongs inactive: 69%. `N#Cc1c(NC(=O)c2cccs2)sc2c1CCCCC2`: the survival is inactive: 87%. As for `Cc1cccc(Cn2c(CNS(=O)(=O)c3ccc(C(C)C)cc3)nc3cccnc32)c1`, the survival was inactive: 75%. On to `CCc1ccc(-n2nc(CO)c(C(=O)NCCc3ccccc3)n2)cc1`, for which the survival is inactive: 51%.

With `O=C(CSc1nc2c([nH]c3ccccc32)c(=O)n1-c1ccc(F)cc1)N1CCc2ccccc21`, the survival was inactive: 95%. With `Cc1ccc(C)c(N2CCN(C(=O)Cc3c(C(=O)O)c(C)cn3C)CC2)c1`, the survival was inactive: 101%. With `Cc1cc(C)cc(-n2c(SCC(=O)N3CCC(C)CC3)nc3c([nH]c4ccccc43)c2=O)c1`, the survival was active: 17%. To `COc1cccc(C(=O)N2CCCCC2CCN2CCCCC2)c1` (stereo unspecified) belongs inactive: 83%.

For `O=C(Cn1nc(-c2ccc(Cl)cc2)c2ccccc2c1=O)Nc1cccc(Br)c1`, the survival is active: 28%. To `CCCCC(=O)Nc1c(C(=O)N2CCN(c3ccccc3F)CC2)oc2ccccc12` belongs inactive: 79%; to `Cc1nc(C)c(CC(=O)O)c(=O)[nH]1`, inactive: 75%. To `COc1ccc(CNC(=O)C2CCN(c3nnc(-n4c(C)ccc4C)s3)CC2)c(OC)c1` belongs inactive: 87%; to `Cc1nc2ccc(S(=O)(=O)N(C)CC(=O)Nc3ccc(C(C)C)cc3)cc2s1`, inactive: 113%.

Take `Cc1ccccc1Cn1c(COc2ccc(Cl)cc2)nc2ccccc21`: the survival is inactive: 114%.

Take `O=C(Nc1cccc(F)c1)C1CCCN(S(=O)(=O)c2cccc3cccnc23)C1` (stereo unspecified): the survival is inactive: 70%. Regarding `CSc1ccccc1NC(=O)CSc1ncccn1`, the survival is inactive: 108%. For the compound `COc1ccc(-c2nnc(SC(C)C)n2-c2ccccc2)cc1`, the survival is inactive: 112%. For the compound `CC1CCN(C(c2ccccc2)c2sc3nc(-c4ccco4)nn3c2O)CC1` (stereo unspecified), the survival was inactive: 72%. To `O=C(CSc1nc(-c2ccccc2)cn1-c1ccccc1F)Nc1ccc(F)cc1` belongs inactive: 81%; to `COc1ccc(CNS(=O)(=O)c2cc3c(cc2Cl)N(C(C)=O)CCO3)cc1`, inactive: 74%; to `Cc1ccc(Nc2cc(C(=O)NCCc3ccccc3)c3ccccc3n2)c(C)c1`, inactive: 76%. To `COc1cc(NC(=O)CN2CCN(S(=O)(=O)c3ccc(Br)cc3)CC2)cc(OC)c1` belongs inactive: 99%; to `O=C(Cn1c(C(=O)NCC2CCCO2)cc2sccc21)c1ccccc1` (stereo unspecified), inactive: 103%; to `COc1ccc(NC(=O)CSc2nc(-c3cc(OC)c(OC)c(OC)c3)[nH]c2-c2ccc(F)cc2)cc1`, inactive: 56%. Consider `COc1ccc(-c2nc(SCC(=O)NC(C)CCc3ccccc3)n[nH]2)cc1` (stereo unspecified), for which the survival was active: 17%. Take `COc1ccc(S(=O)(=O)c2c(Nc3cccc(C)c3C)sc(C(=O)c3ccccc3)c2N)cc1`: the survival is inactive: 75%. In the case of `CCOC(=O)c1c(C)oc2nc(C)nc(NCCc3ccc(OCC)c(OCC)c3)c12`, the survival was inactive: 83%.

`COC(=O)c1ccc(NC(=O)CSc2cn(CC(=O)N3CCCCC3)c3ccccc23)cc1`: the survival was inactive: 71%. Consider `COc1ccc(N2CCN(c3ncnc4c3cnn4-c3ccc(F)cc3)CC2)cc1`, for which the survival was inactive: 87%.

In the case of `CCN(CC)C1=C(C(=O)c2ccccc2)NS(=O)(=O)c2ccccc21`, the survival was inactive: 76%.

With `CC1CCN(S(=O)(=O)c2ccc3c(c2)c(=O)c(C(=O)N2CCN(c4cccc(Cl)c4)CC2)cn3C)CC1`, the survival is inactive: 89%. Take `O=C(CN(Cc1ccccc1)C(=O)Cn1nnc(-c2ccc(F)cc2)n1)NC1CCCC1`: the survival was inactive: 70%. As to `O=C1c2ccccc2-c2onc3c(Oc4ccccc4)cc(O)c1c23`, the survival was inactive: 96%. Regarding `COc1ccc(NC(=O)CN2CCN(CC(=O)Nc3ccccc3F)CC2)c(OC)c1`, the survival was inactive: 86%. Consider `O=c1c2cc3c(cc2nc2sc(Nc4ccccc4)nn12)OCO3`, for which the survival was inactive: 54%. For `O=C(CS(=O)(=O)c1cccc2nsnc12)N1CCN(c2ccccc2F)CC1`, the survival was inactive: 85%. On to `O=C(Nc1ccc(Cl)cc1)C1CCC(CNS(=O)(=O)c2ccc(Br)s2)CC1` (stereo unspecified), for which the survival is inactive: 86%.

On to `Cc1cc(NC(=O)c2ccc3c(c2)N(Cc2cccc(Cl)c2)C(=O)c2ccccc2S3(=O)=O)ccc1Br`, for which the survival was inactive: 90%. Take `COc1ccccc1CNc1nc2ccc(C)cc2n2nnnc12`: the survival is active: 17%. Regarding `Cc1nn(-c2ccccc2)c(OC(=O)c2ccccc2Br)c1S(=O)(=O)c1ccccc1`, the survival is inactive: 83%. To `O=C1CC(c2c(Cl)cccc2Cl)c2c(ccc3ccccc23)N1` (stereo unspecified) belongs inactive: 73%; to `CC1=C(C(=O)Nc2ccccc2Cl)C(c2cccc(O)c2)n2ncnc2N1` (stereo unspecified), inactive: 124%. `COc1ccc(NC(=O)C2=CC(c3ccco3)=NS(=O)(=O)N2C)cc1OC`: the survival is inactive: 92%. In the case of `CCc1ccccc1NC(=O)CCCSc1nc(-c2ccco2)cc(C(F)(F)F)n1` it was inactive: 63%; in that of `CCN(c1ccccc1)S(=O)(=O)c1nnc(NC(=O)c2ccccc2OC)s1`, inactive: 47%. Turning to `CCN(CC)c1ccc(CNCCCSc2nnnn2C)cc1`, the survival was inactive: 88%. On to `COc1ccc(CNC(=O)c2cc(Nc3ccccc3C)nc3ccccc23)cc1`, for which the survival is inactive: 85%.

As to `COCCNc1nc2c(c(=O)n(C)c(=O)n2C)n1Cc1c(F)cccc1Cl`, the survival is inactive: 57%. As to `Cc1oc2ncn(C)c(=O)c2c1C(=O)N1CCN(c2cccc(C(F)(F)F)c2)CC1`, the survival is inactive: 71%. On to `COc1ccc(Cl)cc1NC(=O)CSc1cn(CC(=O)N2CCCCC2)c2ccccc12`, for which the survival is inactive: 61%. In the case of `CCOc1ccc(CN2C(=O)c3ccccc3Sc3ccc(C(=O)NCc4ccco4)cc32)cc1`, the survival is inactive: 82%. With `Cc1oc(-c2cccc(Cl)c2)nc1CN1CCC(C(=O)NC(C)c2ccccc2)CC1` (stereo unspecified), the survival was inactive: 85%. With `COc1cc(C2C(=O)N(C3CCCCC3)CC(=O)N2CCc2ccccc2)ccc1OC(C)C` (stereo unspecified), the survival was inactive: 80%. As to `CCCCN(C)CCCNC(=O)C1CCN(S(=O)(=O)CCC)CC1`, the survival was inactive: 84%. In the case of `O=C(Nc1ccccc1C(F)(F)F)c1ncoc1-c1ccco1`, the survival was inactive: 86%. Turning to `COc1ccc(-c2cc(C(F)(F)F)nc(SCCC(=O)Nc3ccc(NC(C)=O)cc3)n2)cc1`, the survival was inactive: 61%. As to `CN(C(=O)Cn1nnc2ccccc2c1=O)C1CCCCC1`, the survival is inactive: 94%.

As for `COC(=O)C(C)Sc1ccc2nnc(CCNS(=O)(=O)c3ccc(C)cc3)n2n1` (stereo unspecified), the survival is inactive: 56%. Turning to `COc1ccc2oc(=O)c(C(=O)Nc3ccc(O)cc3)cc2c1`, the survival was inactive: 98%. For the compound `Cc1ncc(CO)c2c1Oc1nc(-c3ccccc3Cl)nc(SCc3ccccc3F)c1C2`, the survival was inactive: 72%. With `COCCCNC(=O)Cn1cnc2sc(C)c(S(=O)(=O)N3CCC(C)CC3)c2c1=O`, the survival was inactive: 69%.

With `CC(C)NC(=O)c1ccc(Cn2c(SCC(N)=O)nc3ccccc3c2=O)cc1`, the survival was inactive: 93%. To `Cc1ccc(CCNC(=O)c2ccc3nc(N4CCC(C)CC4)sc3c2)cc1` belongs inactive: 91%; to `CCOc1ccc(C2CC(=O)Nc3nc(SCc4ccccc4C)[nH]c(=O)c32)cc1OC` (stereo unspecified), inactive: 103%. In the case of `O=c1n(Cc2ccccc2Cl)c2ccccc2c2nc(-c3ccccc3)nn12` it was inactive: 78%; in that of `CCCn1cnc2scc(-c3ccccc3)c2c1=O`, inactive: 92%; in that of `Cc1nn2c(=O)cc(COC(=O)c3ccc(NC(=O)COc4ccc(C)c(C)c4)cc3)nc2s1`, inactive: 116%.

Values taken from PubChem BioAssay AID463173 (ICCB-Longwood Screening Facility, Harvard Medical School, 2010).
